# Source: the supplement of paper PMC12217912
# This is one part of the list. Sequences were assembled here from the parent chain. Inactive controls read about 0.05.
# B1: TEV protease; numbered along this chain (parent)
# chain: MGESLFKGPRDYNPISSSICHLTNESDGHTTSLYGIGFGPFIITNKHLFRRNNGTLVVQSLHGVFKVKDTTTLQQHLVDGRDMIIIRMPKDFPPFPQKLKFREPQREERICLVTTNFQTKSMSSMVSDTSCTFPSGDGIFWKHWIQTKDGQCGSPLVSTRDGFIVGIHSASNFTNTNNYFTSVPKNFMELLTNQEAQQWVSGWRLNADSVLWGGHKVFMVKPEEPFQPVKEATQL
# Variants of: B1
# Assay: raw area under fraction-flipped curve 0-4 h after induction (AUC4h, not background-subtracted), DNA-recorder readout of cleavage of the substrate (dimensionless); higher = more cleavage of the substrate by the protease variant
# Details: temperature: 34 °C; time window: 0-4 h after rhamnose induction
# Description: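 In vivo DNA recorder in E. coli TOP10(DE3) ΔrhaA at 34 °C. Each TEVp single-site mutant (parent TEVp 0) is paired with a single-site variant of the 7-mer TEVs (canonical ENLYFQ|S). The substrate sits between flexible linkers in a Bxb1-sfGFP-TEVs-SsrA fusion, so cleavage stabilises Bxb1 and speeds flipping of a recombination array, read by NGS. The value is the raw area under the fraction-flipped curve over 0-4 h after rhamnose induction (AUC4h), with ≥20 reads per time point. It is not background-subtracted; inactive controls average about 0.047.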
# 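Further: Bxb1 expression induced with 0.2% (w/v) L-rhamnose at OD600 near 0.5, cultures sampled hourly, flipped fraction per protease–substrate barcode pair counted by paired-end Illumina sequencing.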
Variant,area with substrate ENLYFAS,area with substrate ENLYFES,area with substrate ENLYFFS,area with substrate ENLYFHS,area with substrate ENLYFIS,area with substrate ENLYFKS,area with substrate ENLYFMS,area with substrate ENLYFNS,area with substrate ENLYFPS,area with substrate ENLYFRS,area with substrate ENLYFTS,area with substrate ENLYFVS,area with substrate ENLYFWS,area with substrate ENLYFYS,area with substrate ENLYFCS,area with substrate ENLYFLS,area with substrate ENLYFDS,area with substrate ENLYFSS,area with substrate ENLYFGS
T31V,0.0529,0.0636,0.0448,0.0561,0.0595,0.0711,0.0669,0.0622,0.0643,0.0669,0.0502,0.0617,0.0555,0.0501,–,–,–,–,–
F41A,0.0451,0.0583,0.0623,0.0491,0.0533,0.0427,0.0584,0.0513,0.0644,0.0314,0.0618,0.0663,0.0456,0.0518,0.0519,0.0376,–,–,–
F41P,0.0443,0.058,0.0692,0.0415,0.0447,0.059,0.0432,0.0491,0.0499,0.0576,–,0.0545,0.0506,0.0487,0.0513,0.0551,0.0708,0.0526,–
F41G,0.0407,0.0562,0.0675,0.0407,0.0452,0.0612,0.0648,0.0451,0.0467,0.0467,0.046,0.0521,0.0531,0.0364,0.0527,0.0569,–,0.0469,0.0396
I42V,0.0746,0.0662,–,–,0.0565,–,–,0.0628,0.0559,0.055,0.0696,–,–,–,–,–,0.0599,–,–
G39L,0.0268,0.0291,–,0.0431,0.0438,–,0.0326,0.0349,0.0389,0.0213,0.0458,0.0525,–,0.0386,–,0.0165,0.04,–,0.0447
G39F,0.0442,0.0412,0.0477,0.0456,0.0415,0.0406,0.0408,0.0392,0.0397,0.0382,0.0387,0.0318,0.043,0.0507,0.0385,–,0.0415,0.0456,–
G39Y,0.0476,0.0367,0.05,0.0448,0.047,0.0418,0.0329,0.0501,0.0728,–,–,0.043,0.0449,0.0393,0.0345,–,–,0.0519,–
P40Q,0.0558,0.0688,0.0782,0.0659,0.068,0.0638,0.0624,0.0655,0.0682,–,0.0554,0.0406,–,0.0646,0.0571,–,–,–,–
G28Q,0.0606,0.0499,0.067,0.0609,0.0534,–,0.0609,–,0.0557,–,0.0639,–,0.0635,–,0.0617,–,–,0.0592,–
L33R,0.0593,–,0.0662,0.0721,0.0572,0.062,0.0569,0.0605,0.0619,–,0.0632,0.0321,0.0534,–,0.0498,–,–,0.0667,–
L33Y,0.0591,0.0698,–,0.075,0.0498,0.0515,0.056,0.064,0.0666,0.0551,0.0427,–,0.0639,–,0.0514,–,–,0.0605,0.058
I43D,0.0438,0.0437,0.0353,0.0407,0.0355,0.0401,0.0482,0.0394,0.0396,–,0.0328,0.0764,0.0458,0.0352,0.0339,–,0.0464,0.0637,–
G37A,0.0528,0.0556,0.0677,0.0628,0.0531,0.0589,0.0607,0.0646,0.0474,0.069,0.0545,0.0573,0.0547,0.0354,0.0596,–,–,0.0577,–
G37F,0.0541,0.0232,0.0539,–,0.0503,0.0495,0.0574,0.0403,0.0512,0.0429,0.0386,0.0631,0.0549,0.0436,0.0502,0.0498,0.0681,0.053,–
G37S,0.0604,0.0459,–,0.0567,0.054,–,–,0.0538,0.0525,–,–,–,0.0577,–,0.0522,–,0.0688,0.0519,–
S26E,0.0657,0.0668,0.0679,0.0647,0.0532,0.0667,0.0651,0.0532,–,0.071,0.0583,0.0626,0.055,0.0539,0.053,–,0.0565,–,0.0891
S26R,0.0609,–,0.0625,–,0.0587,0.0628,0.0543,0.0615,0.0684,0.0632,0.0561,0.0863,0.044,–,0.0513,0.0917,–,–,–
F38K,0.0498,0.053,0.0523,0.0457,0.0474,0.0636,0.0672,0.0511,0.0576,–,0.0283,0.0501,0.0486,–,0.05,–,0.0348,–,–
T23E,0.0561,–,0.0927,0.0485,0.0461,0.0577,0.0641,0.0755,0.062,0.061,0.0691,–,–,0.0632,0.0723,0.0392,0.0569,0.0564,0.0631
T23K,0.0646,0.062,–,0.0604,0.0586,0.0547,0.0612,0.0574,0.056,0.0527,–,0.0537,–,0.0716,0.0778,–,–,–,0.0856
D27G,0.0569,0.0616,0.0706,0.0194,0.0919,0.117,0.0702,0.0623,0.0468,–,–,–,0.0444,–,–,–,0.0548,–,0.0297
D27S,0.0582,0.0668,0.0541,0.0526,0.0607,–,0.068,0.0414,0.0617,0.0553,0.0643,0.0567,0.0556,–,–,0.0614,–,–,–
H29I,0.0436,0.0569,–,0.065,0.0419,0.0585,0.0458,0.0524,–,–,0.0601,0.0491,0.0328,0.0526,0.063,–,–,0.0627,0.065
H29M,0.0557,0.0618,0.0705,0.0335,0.0471,0.0663,0.0824,0.0567,0.0676,0.0441,0.0606,0.0375,0.0663,0.0707,0.0681,–,–,–,–
